Results from the supplement of paper PMC12217912.
The list shows a part of the results. Sequences were assembled here from the parent chain. Values near 0.05 are background.

B1: TEV protease; numbered along this chain (parent)
chain: MGESLFKGPRDYNPISSSICHLTNESDGHTTSLYGIGFGPFIITNKHLFRRNNGTLVVQSLHGVFKVKDTTTLQQHLVDGRDMIIIRMPKDFPPFPQKLKFREPQREERICLVTTNFQTKSMSSMVSDTSCTFPSGDGIFWKHWIQTKDGQCGSPLVSTRDGFIVGIHSASNFTNTNNYFTSVPKNFMELLTNQEAQQWVSGWRLNADSVLWGGHKVFMVKPEEPFQPVKEATQL

Variants of: B1
Experiment: raw area under fraction-flipped curve 0-4 h after induction (AUC4h, not background-subtracted), DNA-recorder readout of cleavage of the substrate (dimensionless); higher = more cleavage of the substrate by the protease variant
Settings: temperature: 34 °C; time window: 0-4 h after rhamnose induction
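Note: Bxb1 expression induced with 0.2% (w/v) L-rhamnose at OD600 near 0.5, cultures sampled hourly, flipped fraction per protease–substrate barcode pair counted by paired-end Illumina sequencing.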

| Variant | area with substrate ENLYGQS | area with substrate ENLYMQS | area with substrate ENLYQQS | area with substrate ENLYVQS | area with substrate ENLYHQS | area with substrate ENLYIQS | area with substrate ENLYKQS | area with substrate ENLYNQS | area with substrate ENLYPQS | area with substrate ENLYRQS |
| --- | --- | --- | --- | --- | --- | --- | --- | --- | --- | --- |
| MGESLFKGPRDYNPISSSICHLTNESDGHTTSLYGIGFGPFIITNKHLFRRNNGTLVVQSTHGVFKVKDTTTLQQHLVDGRDMIIIRMPKDFPPFPQKLKFREPQREERICLVTTNFQTKSMSSMVSDTSCTFPSGDGIFWKHWIQTKDGQCGSPLVSTRDGFIVGIHSASNFTNTNNYFTSVPKNFMELLTNQEAQQWVSGWRLNADSVLWGGHKVFMVKPEEPFQPVKEATQL [L61T] | 0.0692 | 0.0805 | 0.0813 | 0.133 |  |  |  |  |  |  |
| MGESLFKGPRDYNPISSSICHLTNESDGHTTSLYGIGFGPFIITNKHLFRRNNGTLVVQSLHGVFKVKDTTTLQQFLVDGRDMIIIRMPKDFPPFPQKLKFREPQREERICLVTTNFQTKSMSSMVSDTSCTFPSGDGIFWKHWIQTKDGQCGSPLVSTRDGFIVGIHSASNFTNTNNYFTSVPKNFMELLTNQEAQQWVSGWRLNADSVLWGGHKVFMVKPEEPFQPVKEATQL [H76F] | 0.0628 | 0.0657 | 0.0677 | 0.0879 | 0.0534 | 0.132 | 0.0602 | 0.0761 | 0.0766 | 0.0688 |
| MGESLFKGPRDYNPISSSICHLTNESDGHTTSLYGIGFGPFIITNKHLFRRNNGTLVVQSLHGVFKVKDTTTLQQHLVDGRDRIIIRMPKDFPPFPQKLKFREPQREERICLVTTNFQTKSMSSMVSDTSCTFPSGDGIFWKHWIQTKDGQCGSPLVSTRDGFIVGIHSASNFTNTNNYFTSVPKNFMELLTNQEAQQWVSGWRLNADSVLWGGHKVFMVKPEEPFQPVKEATQL [M83R] | 0.0582 |  |  | 0.0469 | 0.058 |  | 0.0374 | 0.0318 |  |  |
| MGESLFKGPRDYNPISSSICHLTNESDGHTTSLYGIGFGPFIITNKHLFRRNNGTLVVQSLHGVFKVKDTTTLQQHLVDGRDMIIIRMPADFPPFPQKLKFREPQREERICLVTTNFQTKSMSSMVSDTSCTFPSGDGIFWKHWIQTKDGQCGSPLVSTRDGFIVGIHSASNFTNTNNYFTSVPKNFMELLTNQEAQQWVSGWRLNADSVLWGGHKVFMVKPEEPFQPVKEATQL [K90A] | 0.0616 |  | 0.049 | 0.126 |  | 0.101 | 0.0482 |  |  |  |
| MGESLFKGPRDYNPISSSICHLTNESDGHTTSLYGIGFGPFIITNKHLFRRNNGTLVVQSLHGVFKVKDTTTLQQHLVDGRDMIIIRMPKDFPPFPDKLKFREPQREERICLVTTNFQTKSMSSMVSDTSCTFPSGDGIFWKHWIQTKDGQCGSPLVSTRDGFIVGIHSASNFTNTNNYFTSVPKNFMELLTNQEAQQWVSGWRLNADSVLWGGHKVFMVKPEEPFQPVKEATQL [Q97D] | 0.0768 |  |  |  |  |  |  |  |  |  |
| MGESLFKGPRDYNPISSSICHLTNESDGHTTSLYGIGFGPFIITNKHLFRRNNGTLVVQSLHGVFKVKDTTTLQQHLVDGRDMIIIRMPKDFPPFPEKLKFREPQREERICLVTTNFQTKSMSSMVSDTSCTFPSGDGIFWKHWIQTKDGQCGSPLVSTRDGFIVGIHSASNFTNTNNYFTSVPKNFMELLTNQEAQQWVSGWRLNADSVLWGGHKVFMVKPEEPFQPVKEATQL [Q97E] | 0.0675 |  |  | 0.0953 |  |  |  | 0.0669 | 0.0552 | 0.0589 |
| MGESLFKGPRDYNPISSSICHLTNESDGHTTSLYGIGFGPFIITNKHLFRRNNGTLVVQSLHGVFKVKDTTTLQQHLVDGRDMIIIRMPKDFPPFPQKLKFREPQREEYICLVTTNFQTKSMSSMVSDTSCTFPSGDGIFWKHWIQTKDGQCGSPLVSTRDGFIVGIHSASNFTNTNNYFTSVPKNFMELLTNQEAQQWVSGWRLNADSVLWGGHKVFMVKPEEPFQPVKEATQL [R109Y] | 0.0618 |  |  |  | 0.0734 | 0.0981 | 0.037 |  | 0.0617 |  |
| MGESLFKGPRDYNPISSSICHLTNESDGHTTSLYGIGFGPFIITNKHLFRRNNGTLVVQSLHGVFKVKDTTTLQQHLVDGRDMIIIRMPKDFPPFPQKLKFREPQREERICLVTTNFQLKSMSSMVSDTSCTFPSGDGIFWKHWIQTKDGQCGSPLVSTRDGFIVGIHSASNFTNTNNYFTSVPKNFMELLTNQEAQQWVSGWRLNADSVLWGGHKVFMVKPEEPFQPVKEATQL [T119L] | 0.035 |  | 0.0629 |  |  | 0.125 | 0.0236 |  |  |  |
| MGESLFKGPRDYNPISSSICHLTNESDGHTTSLYGIGFGPFIITNKHLFRRNNGTLVVQSLHGVFKVKDTTTLQQHLVDGRDMIIIRMPKDFPPFPQKLKFREPQREERICLVTTNFQSKSMSSMVSDTSCTFPSGDGIFWKHWIQTKDGQCGSPLVSTRDGFIVGIHSASNFTNTNNYFTSVPKNFMELLTNQEAQQWVSGWRLNADSVLWGGHKVFMVKPEEPFQPVKEATQL [T119S] | 0.0763 | 0.105 | 0.0639 | 0.136 | 0.0681 |  | 0.0524 |  | 0.0446 | 0.0587 |
| MGESLFKGPRDYNPISSSICHLTNESDGHTTSLYGIGFGPFIITNKHLFRRNNGTLVVQSLHGVFKVKDTTTLQQHLVDGRDMIIIRMPKDFPPFPQKLKFREPQREERICLVTTNFQWKSMSSMVSDTSCTFPSGDGIFWKHWIQTKDGQCGSPLVSTRDGFIVGIHSASNFTNTNNYFTSVPKNFMELLTNQEAQQWVSGWRLNADSVLWGGHKVFMVKPEEPFQPVKEATQL [T119W] | 0.0806 |  | 0.0609 | 0.122 |  |  |  |  | 0.0898 |  |
| MGESLFKGPRDYNPISSSICHLTNESDGHTTSLYGIGFGPFIITNKHLFRRNNGTLVVQSLHGVFKVKDTTTLQQHLVDGRDMIIIRMPKDFPPFPQKLKFREPQREERICLVTTNFQTKSMSSMVSDTSETFPSGDGIFWKHWIQTKDGQCGSPLVSTRDGFIVGIHSASNFTNTNNYFTSVPKNFMELLTNQEAQQWVSGWRLNADSVLWGGHKVFMVKPEEPFQPVKEATQL [C131E] | 0.0656 |  |  | 0.156 | 0.0671 | 0.115 |  |  |  |  |

Same assay, conditions: temperature: 34 °C; time window: 0-4 h after rhamnose induction

| Variant | area with substrate ENLYWQS | area with substrate ENLYYQS | area with substrate ENLYSQS | area with substrate ENLYTQS |
| --- | --- | --- | --- | --- |
| MGESLFKGPRDYNPISSSICHLTNESDGHTTSLYGIGFGPFIITNKHLFRRNNGTLVVQSLHGVFKVKDTTTLQQFLVDGRDMIIIRMPKDFPPFPQKLKFREPQREERICLVTTNFQTKSMSSMVSDTSCTFPSGDGIFWKHWIQTKDGQCGSPLVSTRDGFIVGIHSASNFTNTNNYFTSVPKNFMELLTNQEAQQWVSGWRLNADSVLWGGHKVFMVKPEEPFQPVKEATQL [H76F] | 0.0706 | 0.0508 |  |  |
| MGESLFKGPRDYNPISSSICHLTNESDGHTTSLYGIGFGPFIITNKHLFRRNNGTLVVQSLHGVFKVKDTTTLQQHLVDGRDRIIIRMPKDFPPFPQKLKFREPQREERICLVTTNFQTKSMSSMVSDTSCTFPSGDGIFWKHWIQTKDGQCGSPLVSTRDGFIVGIHSASNFTNTNNYFTSVPKNFMELLTNQEAQQWVSGWRLNADSVLWGGHKVFMVKPEEPFQPVKEATQL [M83R] |  |  | 0.0641 |  |
| MGESLFKGPRDYNPISSSICHLTNESDGHTTSLYGIGFGPFIITNKHLFRRNNGTLVVQSLHGVFKVKDTTTLQQHLVDGRDMIIIRMPADFPPFPQKLKFREPQREERICLVTTNFQTKSMSSMVSDTSCTFPSGDGIFWKHWIQTKDGQCGSPLVSTRDGFIVGIHSASNFTNTNNYFTSVPKNFMELLTNQEAQQWVSGWRLNADSVLWGGHKVFMVKPEEPFQPVKEATQL [K90A] |  |  | 0.0788 | 0.0711 |
| MGESLFKGPRDYNPISSSICHLTNESDGHTTSLYGIGFGPFIITNKHLFRRNNGTLVVQSLHGVFKVKDTTTLQQHLVDGRDMIIIRMPKDFPPFPDKLKFREPQREERICLVTTNFQTKSMSSMVSDTSCTFPSGDGIFWKHWIQTKDGQCGSPLVSTRDGFIVGIHSASNFTNTNNYFTSVPKNFMELLTNQEAQQWVSGWRLNADSVLWGGHKVFMVKPEEPFQPVKEATQL [Q97D] | 0.127 |  |  |  |
| MGESLFKGPRDYNPISSSICHLTNESDGHTTSLYGIGFGPFIITNKHLFRRNNGTLVVQSLHGVFKVKDTTTLQQHLVDGRDMIIIRMPKDFPPFPEKLKFREPQREERICLVTTNFQTKSMSSMVSDTSCTFPSGDGIFWKHWIQTKDGQCGSPLVSTRDGFIVGIHSASNFTNTNNYFTSVPKNFMELLTNQEAQQWVSGWRLNADSVLWGGHKVFMVKPEEPFQPVKEATQL [Q97E] |  |  | 0.103 | 0.0709 |
| MGESLFKGPRDYNPISSSICHLTNESDGHTTSLYGIGFGPFIITNKHLFRRNNGTLVVQSLHGVFKVKDTTTLQQHLVDGRDMIIIRMPKDFPPFPQKLKFREPQREEYICLVTTNFQTKSMSSMVSDTSCTFPSGDGIFWKHWIQTKDGQCGSPLVSTRDGFIVGIHSASNFTNTNNYFTSVPKNFMELLTNQEAQQWVSGWRLNADSVLWGGHKVFMVKPEEPFQPVKEATQL [R109Y] |  | 0.0767 | 0.0565 | 0.104 |
| MGESLFKGPRDYNPISSSICHLTNESDGHTTSLYGIGFGPFIITNKHLFRRNNGTLVVQSLHGVFKVKDTTTLQQHLVDGRDMIIIRMPKDFPPFPQKLKFREPQREERICLVTTNFQSKSMSSMVSDTSCTFPSGDGIFWKHWIQTKDGQCGSPLVSTRDGFIVGIHSASNFTNTNNYFTSVPKNFMELLTNQEAQQWVSGWRLNADSVLWGGHKVFMVKPEEPFQPVKEATQL [T119S] | 0.0858 |  |  | 0.079 |
| MGESLFKGPRDYNPISSSICHLTNESDGHTTSLYGIGFGPFIITNKHLFRRNNGTLVVQSLHGVFKVKDTTTLQQHLVDGRDMIIIRMPKDFPPFPQKLKFREPQREERICLVTTNFQWKSMSSMVSDTSCTFPSGDGIFWKHWIQTKDGQCGSPLVSTRDGFIVGIHSASNFTNTNNYFTSVPKNFMELLTNQEAQQWVSGWRLNADSVLWGGHKVFMVKPEEPFQPVKEATQL [T119W] | 0.0948 |  |  |  |
| MGESLFKGPRDYNPISSSICHLTNESDGHTTSLYGIGFGPFIITNKHLFRRNNGTLVVQSLHGVFKVKDTTTLQQHLVDGRDMIIIRMPKDFPPFPQKLKFREPQREERICLVTTNFQTKSMSSMVSDTSETFPSGDGIFWKHWIQTKDGQCGSPLVSTRDGFIVGIHSASNFTNTNNYFTSVPKNFMELLTNQEAQQWVSGWRLNADSVLWGGHKVFMVKPEEPFQPVKEATQL [C131E] |  |  | 0.091 |  |
